The target of assay [1] is human LRRK2(G2019S) kinase (Homo sapiens, UniProt Q5S007, G2019S). The assay can be described thus: biochemical. The method in brief: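 Human LRRK2 (25 ng) or LRRK2(G2019S) (16 ng) reacted with 10 μM ATP and 0.2 μg substrate in Tris pH 7.4, MgCl2, DTT, BSA for 60 min at 25 °C. ADP measured by ADP-Glo luminescence; 12-point 1:3 dilutions from 50 μM to 0.01 nM, 0.5% DMSO controls, curve-fitted.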

In a further assay the target is T1, panel of 468 kinases (Homo sapiens, UniProt Q5S007, G2019S).
T1 construct: purchased KINOMEscan (ScanMAX) service
The assay can be described thus: KINOMEscan (ScanMAX) kinase profiling. As to conditions: LRRK2(G2019S), read-out: % control. It is filed as binding. The protocol:
The kinase selectivity of inventive compounds 12, 75, and 77 was evaluated by KINOMEscan®. KINOMEscan® (ScanMAX™) analysis was performed against a near comprehensive panel of 468 kinases. The control percentage (% control) for inventive compounds at 1 μM in DMSO was determined by Equation 1: % control=(inventive compound−positive control)/(negative control−positive control)×100%, Equation 1
wherein the positive control is a compound with a % control value of 0% relative light units (RLU), and the negative control (i.e., DMSO) has % control value of 100% RLU. The enzyme selectivity in the present invention is defined as follows: inventive compounds are considered active for an enzyme when the observed % control is less than 35% (<35%).

pIC50: −log10 of the molar value. Some results are limits rather than exact numbers.

With `CNc1nc(Nc2ccc(S(=O)(=O)N3CCC(N4CCOCC4)CC3)cc2OC)nc2[nH]cc(Cl)c12` [Compound 12, 5-chloro-N2-(2-methoxy-4-((4-morpholinopiperidin-1-yl)sulfonyl)phenyl)-N4-methyl-7H-pyrrolo[2,3-d]pyrimidine-2,4-diamine], the pIC50 in assay [1] is over 8.00. Moreover, the remaining binding at 1 µM at panel of 468 kinases amounted to 1.5%.

Regarding `CNc1nc(Nc2ccc(C(=O)N3CCC(N4CCOCC4)CC3)c3c2OCO3)nc2[nH]cc(Cl)c12` [Compound 75, (7-((5-chloro-4-(methylamino)-7H-pyrrolo[2,3-d]pyrimidin-2-yl)amino)benzo[d][1,3]dioxol-4-yl)(4-morpholinopiperidin-1-yl)methanone], in assay [1], the pIC50 was over 8.00. Further, on panel of 468 kinases, the remaining binding at 1 µM worked out at 0.3%.

As for `CNc1nc(Nc2ccc(P3(=O)CCN(C4CCOCC4)CC3)cc2OC)nc2[nH]cc(Cl)c12` [Compound 77, 4-(4-((5-chloro-4-(methylamino)-7H-pyrrolo[2,3-d]pyrimidin-2-yl)amino)-3-methoxyphenyl)-1-(tetrahydro-2H-pyran-4-yl)-1,4-azaphosphinane 4-oxide], the pIC50 in assay [1] is over 8.00. Further, the remaining binding at 1 µM at panel of 468 kinases was 2.1%.

`CCNc1nc(Nc2ccc(C(=O)N3CCOCC3)c3c2OCC3)nc2[nH]cc(Cl)c12` [Compound 101, (7-((5-chloro-4-(ethylamino)-7H-pyrrolo[2,3-d]pyrimidin-2-yl)amino)-2,3-dihydrobenzofuran-4-yl)(morpholino)methanone]: the pIC50 in assay [1] is over 8.00.

As for `CCCNc1nc(Nc2ccc(C(=O)N3CCC(N4CCOCC4)CC3)c3c2OCC3)nc2[nH]cc(Cl)c12` [Compound 102, (7-((5-chloro-4-(propylamino)-7H-pyrrolo[2,3-d]pyrimidin-2-yl)amino)-2,3-dihydrobenzofuran-4-yl)(4-morpholinopiperidin-1-yl)methanone], the pIC50 in assay [1] was over 8.00.

For the compound `O=C(c1ccc(Nc2nc(NC3CCC3)c3c(Cl)c[nH]c3n2)c2c1CCO2)N1CCC(N2CCOCC2)CC1` [Compound 103, (7-((5-chloro-4-(cyclobutylamino)-7H-pyrrolo[2,3-d]pyrimidin-2-yl)amino)-2,3-dihydrobenzofuran-4-yl)(4-morpholinopiperidin-1-yl)methanone], the negative-log IC50 (pIC50) in assay [1] is over 8.00.

With `COc1cc(P2(=O)CCN(C3CC3)CC2)ccc1Nc1nc(NC2CCC2)c2c(Cl)c[nH]c2n1` [Compound 104, 4-(4-((5-chloro-4-(cyclobutylamino)-7H-pyrrolo[2,3-d]pyrimidin-2-yl)amino)-3-methoxyphenyl)-1-cyclopropyl-1,4-azaphosphinane 4-oxide], in assay [1], the pIC50 is over 8.00.

Regarding `CCNc1nc(Nc2ccc(C(=O)N3CCC(N4CCOCC4)CC3)c3c2OCC3)nc2[nH]cc(Cl)c12` [Compound 105, (7-((5-chloro-4-(ethylamino)-7H-pyrrolo[2,3-d]pyrimidin-2-yl)amino)-2,3-dihydrobenzofuran-4-yl)(4-morpholinopiperidin-1-yl)methanone], in assay [1], the negative logarithm of the IC50 (pIC50) is over 8.00.

Values taken from US12479847B2 (DANA-FARBER CANCER INSTITUTE, INC., priority 2019, dated 2025).
